Source: the supplement of paper PMC3334620
In all, about 33,000 sequences were measured (“E-score (-0.5 to 0.5)”: median about -0.054, highest 2% from about 0.39 on). The list shows a part of the results.

Molecular target: Ylr278c (UniProt Q05854)
Assay: PBM E-score (8-mer binding enrichment) (E-score (-0.5 to 0.5)); higher = stronger / more preferred TF binding; most listed sequences are background and not binding sites
Details: protein concentration: 200 nM; construct: GST-DNA-binding domain
Experimental: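 Universal 'all 10-mer' protein binding microarrays (Agilent AMADID 015681) probed with GST-tagged S. cerevisiae TFs (full-length or DBD) made by in vitro transcription/translation (PURExpress), about 100-200 nM. Bound TF was detected with fluorescent anti-GST. Each ungapped 8-mer (which stands for itself and its reverse complement) is scored by the PBM enrichment score (E-score), a modified Wilcoxon-Mann-Whitney statistic from -0.5 to +0.5, computed with the Universal PBM Analysis Suite. Scale: above 0.35 generally sequence-specific binding.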

Sequence | PBM E-score
AAGGAAAA | -0.0186
CCAGTATC | -0.0393
AAGGCGGC | 0.0194
AGGGCAAT | 0.0285
AACTTAAT | 0.0755
ACATAGTA | -0.226
AACATATG | -0.115
AGGGTAAA | -0.0838
CCAATCAA | 0.0292
CTATGCGA | -0.165
CCTTGAGA | -0.123
ACCAGATC | -0.0417
CATGACCA | -0.318
ATAATCAT | -0.0336
CCCGTGCG | 0.182
GGCTAGCA | -0.0267
ATCGAACG | -0.0875
AAATATGA | -0.0874
ATGACGCC | -0.141
ACCTACCT | 0.0257
ACATCTGC | -0.197
GGTGTCGA | -0.192
CTGAGGAC | 0.0445
AGAACAGG | -0.0371
CATAATCC | -0.017

Sequence | PBM E-score
TTGTTAAA | 0.00886
GCGCAGTA | 0.0804
GATCGTCC | 0.0365
ACTACGTC | -0.0801
CTTGCCCC | -0.0221
GAATGGGA | -0.0214
ATATCTTC | 0.125
CACGGTTC | -0.233
CCGAATTA | 0.256
AAGCACCC | -0.161
AAGCCTCT | -0.36
AAGGTGAG | -0.106
AAGCTGCA | -0.196
CAAATTGA | -0.128
TACGAACA | -0.171
CAACCTCA | -0.251
CGGAAGAA | 0.36
CTACTGCC | -0.168
GCCCTTGA | -0.2
CCCGCAAC | 0.24
TAGATGAA | -0.0861
ACGCTAGT | -0.0423
CGGTGGCC | 0.161
AAAAACTG | -0.147
CGGCAGGA | 0.182

Sequence | PBM E-score
GAGGCTAA | 0.0333
GAGGTGCC | 0.104
GGGAATGA | 0.152
GCCACTTA | -0.127
TACGACTA | -0.202
ATCTATTG | -0.0701
AGACGCGG | 0.205
CCCCACTA | -0.0146
CAGCATAC | -0.217
CAGAGCTC | -0.034
GCGCGACA | 0.263
GCACCAAC | 0.102
GAGTTACC | 0.0153
ACGGTTCA | -0.11
ACGGGCTC | -0.00295
AGGCACAA | -0.0607
AGAGATCT | -0.228
GAACCGTC | -0.016
GATGTTCA | -0.0894
GACGGTCC | 0.137
ACAAGTTG | 0.0314
AACAAACA | 0.0134
AAATTTAG | 0.07
GCCAACGA | -0.181
CCGGAGCG | 0.458

Sequence | PBM E-score
CAACGGGC | 0.104
CCTGCGTC | -0.0875
CTGTTATA | -0.159
ACGACGAG | -0.342
AAGCTATT | -0.149
GATTGTAA | -0.0147
AAACGGAG | 0.356
CAACTTAG | 0.0176
CTACGCCA | -0.217
CCGAAGTC | 0.276
GCACACCC | -0.231
ACTACGCT | -0.0389
TGCATCCA | -0.0927
TCAGGGCA | -0.256
TCTGTTAA | -0.204
AAACCCCT | -0.0292
ATTAGAAC | 0.18
ACATGAGA | -0.00545
AGCACGCA | -0.286
GGTAAGCA | -0.102
ACGGGTTG | -0.138
ATGGGCGC | 0.0118
AATCTGAG | -0.171
CTTTAAAA | 0.0433
GTGCCCAA | -0.104

Sequence | PBM E-score
GAGTATAC | 0.00253
CAATACGA | -0.0571
ACGGTCTG | -0.182
CAGCTACA | -0.138
GCCTTGCC | 0.0699
GACTAAGC | 0.0881
CGTTAATA | 0.0801
ATTAAGTA | 0.0373
GGGACAAC | -0.104
CGGTTAGC | 0.0365
TATGACAA | -0.122
CAATCAGG | -0.166
GCCGGCCC | 0.248
CAAGCTTA | 0.0597
GACTGTCC | 0.00299
GGGAAAAC | 0.132
ACCATTCG | -0.145
CGTAAGTC | 0.0349
ATTGCAAA | 0.0864
ATTTGTTG | 0.0269
ACTAGTCT | -0.3
AATGGAGA | 0.0569
AGGCAAAG | -0.262
CGGTAGGA | 0.0643
GACCCTGC | 0.0498

Sequence | PBM E-score
AGGGATAA | -0.283
GCCGCCGA | 0.338
ATTCACGA | -0.102
GCACCGGC | 0.264
TACAAGTA | -0.244
ATCCTACG | -0.112
CGTGCCGA | 0.248
AGGGCGTA | -0.128
ATCTACAT | 0.0143
GGGTACGA | -0.152
CCCACTTC | 0.0368
ATATCCAG | -0.15
ATAATCCA | 0.00051
ATAGGGAG | -0.265
CCGGTCGA | 0.319
AAACATAA | -0.251
TAAACATA | -0.118
AAGATAAT | 0.00135
GCGGTCAA | 0.198
CCGCGGTC | 0.268
GCCCTAGC | -0.184
CATATTTA | -0.0147
TCACGTCA | -0.117
TTTGCAAA | -0.106
GTCTAGCA | -0.128

Sequence | PBM E-score
AGTGGGGC | -0.117
GAAGTGCA | -0.107
TAAAGTGA | -0.0428
ACGGTAAA | 0.0145
ACTCCAAG | -0.198
GAGTTGCC | 0.129
ACCCTTGA | -0.00215
ACAATGCG | 0.0377
ACAGTGTA | -0.147
AACTGTCA | -0.12
ACCTGCAG | -0.3
AGTTGCGA | -0.123
CATCTCGC | -0.0349
AGCTAGTC | -0.0734
CCCTCGAG | -0.266
CCTATGAG | -0.291
AAGACGTC | -0.202
AGATGACG | -0.223
AGAGCGAC | -0.194
AAAAACGC | 0.0626
GGTGCTCA | -0.18
AATCTAGA | -0.329
CGGACCGC | 0.392
AGAAGCAC | -0.13
ATCTAACG | 0.0888

Sequence | PBM E-score
AGTAGGAC | -0.0502
TGCCACCA | -0.28
ACGTTAAG | -0.152
ACTGATAG | -0.203
ACCTAAGC | 0.0293
CGGATACC | 0.295
AGATCAGA | -0.338
CGTTCTCC | 0.231
ACGTCCAC | -0.172
GAACCAAA | -0.187
AGCATAAA | 0.0832
AAAGGTAT | 0.0581
AGCAGTCG | -0.0461
ACCGAAAT | 0.223
AGCCACCC | -0.0671
CAACTAAG | -0.0852
GCTGCGCC | -0.0608
TTACGTAA | -0.407
AGCCCTTC | -0.241
CAGCTGCA | -0.0112
CAAGTCTC | -0.302
AGCCGACT | 0.0892
TCTGGGCA | 0.101
ACAAACAG | -0.0638
GATAAGAA | -0.0109

Sequence | PBM E-score
TGAAGACA | -0.137
CGCGCCGA | 0.303
CCCGGCCA | 0.267
CGAGCATC | 0.0603
AGCCGTAC | -0.0213
AGAACGAA | -0.0218
CGATAGTA | 0.0399
CTGTTTGC | -0.121
CTACATGA | -0.162
CGATTGAA | 0.00725
AGGCCACG | -0.0792
TAGCGCGA | 0.074
AGAAGGAA | -0.147
ACGTGTTA | 0.0203
AGCGTTAA | -0.0183
AGATAGCA | -0.0546
CTAGGCGA | -0.043
GACTTTAC | 0.0435
ATTGTTCA | -0.111
